Measured values taken from publication PMC4336329 (PLoS ONE, 2015).
In all, about 310,000 compounds went through this assay and about 2,200 (0.71%) showed an effect of 50% or more. The effect is printed as a negative number. The list shows a part of the results.

molecular target: human ether-à-go-go-related gene (hERG) potassium channel (human, UniProt Q12809); assay: primary screen, population patch clamp on CHO cells stably expressing hERG
Sequence (Q12809 whole entry, looked up): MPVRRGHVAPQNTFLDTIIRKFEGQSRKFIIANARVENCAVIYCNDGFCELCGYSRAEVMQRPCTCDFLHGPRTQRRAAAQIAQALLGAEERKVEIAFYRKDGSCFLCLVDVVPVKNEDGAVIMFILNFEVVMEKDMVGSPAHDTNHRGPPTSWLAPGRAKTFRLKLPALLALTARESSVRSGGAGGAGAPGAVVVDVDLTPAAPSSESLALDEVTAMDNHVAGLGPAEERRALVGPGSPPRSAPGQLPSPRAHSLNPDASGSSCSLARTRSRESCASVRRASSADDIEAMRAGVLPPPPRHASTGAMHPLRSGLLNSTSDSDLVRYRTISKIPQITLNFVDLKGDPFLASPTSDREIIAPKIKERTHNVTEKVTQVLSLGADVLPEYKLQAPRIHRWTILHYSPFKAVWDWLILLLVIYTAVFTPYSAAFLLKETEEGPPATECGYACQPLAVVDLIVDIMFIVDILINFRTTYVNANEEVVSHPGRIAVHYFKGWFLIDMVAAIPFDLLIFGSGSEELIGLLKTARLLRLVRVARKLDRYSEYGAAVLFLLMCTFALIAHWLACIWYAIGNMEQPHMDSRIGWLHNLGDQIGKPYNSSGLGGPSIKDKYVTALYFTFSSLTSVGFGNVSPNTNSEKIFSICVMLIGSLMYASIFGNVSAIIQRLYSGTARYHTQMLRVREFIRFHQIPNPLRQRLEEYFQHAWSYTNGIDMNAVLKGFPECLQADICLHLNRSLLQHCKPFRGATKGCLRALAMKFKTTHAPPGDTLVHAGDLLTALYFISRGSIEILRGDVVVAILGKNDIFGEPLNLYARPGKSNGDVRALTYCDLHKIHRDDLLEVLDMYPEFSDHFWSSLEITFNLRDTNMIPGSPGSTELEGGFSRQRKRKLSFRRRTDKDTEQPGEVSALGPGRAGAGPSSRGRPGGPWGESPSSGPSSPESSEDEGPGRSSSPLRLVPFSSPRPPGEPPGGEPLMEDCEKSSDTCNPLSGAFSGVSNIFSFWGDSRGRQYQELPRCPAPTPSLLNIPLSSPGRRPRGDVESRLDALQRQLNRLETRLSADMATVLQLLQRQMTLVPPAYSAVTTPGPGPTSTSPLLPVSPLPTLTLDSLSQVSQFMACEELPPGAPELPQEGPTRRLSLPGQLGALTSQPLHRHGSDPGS

In order of rising “hERG current change (%, negative = inhibition) at 1uM” value:
1. COc1ccc(CCN(C)C2CCCN(S(=O)(=O)c3ccccc3F)C2)cc1OC (stereo not drawn)  -45.9%
2. CCCNc1c(NS(=O)(=O)c2ccc(C)cc2C)c(=O)oc2ccccc12  -36.7%
3. CC1CN(C(=O)/C=C/c2ccc3c(c2)OCO3)CC(C)O1 (stereo not drawn)  -17.9%
4. CCN1CCc2c(OCC(=O)N3N=C(c4cccs4)CC3c3ccc(F)cc3)cccc2C1=O (stereo not drawn)  -8.94%
5. CC(Sc1nnnn1C)C(=O)Nc1ncc(Cl)cc1Cl (stereo not drawn)  -0.587%
6. CCN(C(=O)CN1CCN(C)CC1)c1c(N)n(Cc2ccccc2)c(=O)[nH]c1=O  -0.443%
7. N#CCSc1ccc(-c2nc3ccccc3[nH]2)cn1  -0.0982%
8. CN(c1cccc(NC(=O)CSc2ccc(Cl)cc2)c1)S(C)(=O)=O  0.236%
9. COc1ccc(Cn2c(SCC(=O)NCc3ccco3)nc3ccsc3c2=O)cc1  0.371%
10. Cc1ccc(S(=O)(=O)N2CCN(C(=O)C3Cc4ccccc4CN3C(=O)c3ccco3)CC2)cc1 (stereo not drawn)  1.64%
11. CC(C)CC1NC(=S)N(Cc2ccccc2)C1=O (stereo not drawn)  1.75%
12. Fc1ccccc1C1c2cccn2CCN1C(=S)Nc1cccc(Br)c1 (stereo not drawn)  1.92%
13. Cc1cccn2c(=O)c(/C=N/O)c(N3CCCC3)nc12  3.73%
14. O=C(NC1CCCC1)c1cc(S(=O)(=O)N2CCOCC2)c(Cl)cc1Cl  4%
15. Cc1ccc(S(=O)(=O)c2nc(-c3ccccc3Cl)oc2NCCCN2CCOCC2)cc1  4.2%
16. Cc1ccc(C(c2cc(Cl)c3cccnc3c2O)N2CCN(C)CC2)cc1 (stereo not drawn)  4.22%
17. COC(=O)c1ccccc1NC(=O)c1cc(-c2cccs2)on1  4.24%
18. COC(=O)Cn1cc(C(=O)OC)c2ccccc21  4.33%
19. CC(C)Oc1ccc(C(=O)NC2CCS(=O)(=O)C2)cc1 (stereo not drawn)  4.64%
20. c1ccc2nc3[nH]cnc3nc2c1  5.74%
21. CC(NC(=O)c1ccncc1)c1ccc(Br)cc1 (stereo not drawn)  5.94%
22. COC(=O)c1sc2nc3c(cc2c1N)COC(C)(C)C3  5.95%
23. O=C(c1ccco1)N(Cc1ccccc1)c1cccc([N+](=O)[O-])c1  6.11%
24. Cc1sc2ncn(/N=C/c3ccco3)c(=O)c2c1C  6.44%
25. COc1ccc(CN(C(=O)c2cc(=O)c3cc(C)cc(C)c3o2)C2CCS(=O)(=O)C2)cc1 (stereo not drawn)  6.89%
26. CCCc1cc(=O)[nH]c(SCC(=O)Nc2sc(C(N)=O)c(C)c2C(=O)OCCOC)n1  6.92%
27. CC1CC(C)(C)NC(=S)N1CCC(=O)N1c2ccccc2CC1C (stereo not drawn)  7.04%
28. Cc1ccc(S(=O)(=O)Nc2ccncc2)c(C)c1.Cl  7.15%
29. CCOCCCNC(=O)CSc1nnc(-c2ccc(S(=O)(=O)N3CCCC3)cc2)n1C  7.3%
30. Cl.Cn1ccc2cc(NC(=O)Nc3cccnc3)ccc21.O  8.01%
31. Cc1ccc2nc(Nc3ccc(F)cc3)c3nncn3c2c1  8.04%
32. CCc1cccc(CC)c1NC(=O)C1CCN(C(=O)c2ccco2)CC1  8.46%
33. CCCOP(=O)(OCCC)C(NC(=O)c1cc(OC)c(OC)c(OC)c1)c1ccccc1 (stereo not drawn)  8.5%
34. Cc1nc2ccccc2n1Cc1n[nH]c(=S)n1-c1ccc(Cl)cc1  9.06%
35. O=C(CN1CCCCC1)N1CCCc2ccccc21.O=C(O)C(=O)O  9.31%
36. N#CCSc1nc(N)c(C#N)c(C2CCCCC2)c1C#N  10%
37. Cc1cc(C)nc(SCCC(=O)N(C)C)n1  11%
38. Cc1ccccc1-n1c(SCC(=O)O)nc2sc3c(c2c1=O)CCCC3  11.2%
39. COc1ccc(OC)c(Cc2nnc(CCC(=O)N3CCCCCC3)o2)c1  11.7%
40. CC(=O)Nc1ccc(S(=O)(=O)NCCC(=O)OCc2nc(N)nc(Nc3ccccc3C)n2)cc1  11.8%
41. CS(=O)(=O)N(CC(=O)Nc1cccc(Br)c1)Cc1ccccc1  12%
42. Cl.OCCNCC1(O)C2CC3CC(C2)CC1C3 (stereo not drawn)  12.1%
43. Cc1ccc(S(=O)(=O)NC(C)C(=O)N2CCOCCOCCOCCOCC2)cc1 (stereo not drawn)  13%
44. Cc1ccc(/C([O-])=C(/C(=S)Nc2ccc(SC(F)F)cc2)[n+]2ccccc2)cc1[N+](=O)[O-]  13.8%
45. CCC(=O)NC(=S)Nc1cccc(NC(=O)c2ccccc2)c1  13.8%
46. CN(C(=O)c1ccccc1)c1ccc(OCC(=O)NC2CCS(=O)(=O)C2)cc1 (stereo not drawn)  14%
47. Cc1oc(-c2cccc(Cl)c2)nc1CS(=O)(=O)CC(=O)NCCCN1CCOCC1  14.6%
48. COc1ccc(S(=O)(=O)N2CCOCC2)cc1NC(=O)c1cc(=O)[nH]c2ccccc12  14.9%
49. CC1=Nc2ccccc2N=C(N)C1c1ccccc1 (stereo not drawn)  15.4%
50. N#Cc1ccc(-c2nc3ccccc3c(=O)n2O)cc1  15.6%
51. CCOC(=O)N1CCN(Cc2nnc(-c3ccccc3Cl)o2)CC1.Cl  16.4%
52. CN(Cc1ccccc1)C(=O)c1[nH]cnc1C(=O)Nc1cccc(Cl)c1  17.9%
53. COc1ccc(CCNC(=O)C(=O)NCC2CCCN2S(=O)(=O)c2cccs2)cc1 (stereo not drawn)  18.7%
54. C=CCNC(=S)NNC(=O)c1ccc(=O)n(Cc2ccccc2)c1  20.9%
55. O=C(CCc1ccccc1)NNC(=O)COc1ccc(Cl)cc1  21.5%
56. O=C(NCC(=O)N(Cc1ccccc1)C(C(=O)NC1CCCC1)c1cccnc1)c1ccco1 (stereo not drawn)  22.5%
57. COc1ccc(/C=N/OCC(=O)N=Nc2c(O)[nH]c3ccc(Br)cc23)cc1  23.1%
